This data set concerns ATP. The experiment in a line: switch fluorescence ratio, 500 uM ATP over buffer (Cy3 cluster intensity, sum of 5 cycles each) (fold (ratio)); higher = stronger signal-on switching upon ATP binding; sequences stand for … in TCGTCGGCAGCGTCAGATGTGTATAAGAGACAGTTTTTTTTTTTTTTTTTTTTTTTTT…TC. The conditions noted are these: aptamer strand: ATP DNA aptamer (quencher-CACCTGGGGGAGTATTGCGGAGGAAGG + anchor), 100 nM annealed; ATP concentration: 500 uM; one replicate. The gist of the method: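 Cy3-labelled switching-strand clusters on a modified Illumina MiSeq flow-cell were annealed to 100 nM quencher-labelled ATP aptamer, imaged in selection buffer, then imaged after 15 min with 500 uM ATP at 22 °C. Five buffer/ATP cycles ran, with NaOH stripping and re-annealing between them. The fluorescence ratio is summed target-cycle over summed buffer-cycle Cy3 intensity per cluster, averaged per switch-domain sequence. Clusters outside 100-1000 RFU were excluded.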

Sequences with one replicate were seen in a single cluster, so their values are uncertain.
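Further: ATP exposure 15 min at 22 °C before imaging.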

For GCAGCAGCG, the switch fluorescence ratio is 1.02.
As for ATCAAGTACG, the figure is 1.22; as for GGGGGATAA, 0.973; as for ATTCCTACGG, 1.36.
As for GATGTGGTTA, the figure is 1.01; as for TATTTGTGGA, 0.988; as for GGTTAATGCC, 1.
In the case of CTCAGAAGTG it was 1.02.
On to CGCATGCGTA, for which the switch fluorescence ratio came out at 0.957.
With TGAGTATGTT, the switch fluorescence ratio is 0.985.
In the case of GGTTGAAC it was 0.98; in that of TGTCGATCAG, 1.01; in that of TAATGCTGGT, 1.
In the case of ATTAGGTGTA it was 1.04.
With CCATTTTCAA, the switch fluorescence ratio came to 1.19.
As for AGTAACGTAG, the figure is 0.976; as for ACGATTACAC, 1.33; as for GATTAAGTTG, 0.956.
As for CAGTGCACCT, the figure is 1.04; as for CCTTGATGCC, 0.967.
For TATCGTGTTT, the switch fluorescence ratio is 0.993.
Turning to CTTTTAGATA, the switch fluorescence ratio is 1.04.
As for TCCAGGGACG, the figure is 1.06; as for CGTCGGCGG, 0.97.
On to CGCGAGCCGG, for which the switch fluorescence ratio was 0.936.
For TTTTGGGTT, the switch fluorescence ratio stood at 1.04.
As for TTCATTTCC, the figure is 1.12.
Turning to GAGAAAGCAA, the switch fluorescence ratio was determined as 1.09.
As for TGCTCTTAGC, the figure is 0.983; as for CGTGGGTGG, 1.04.
As for CCTGAAGCGG, the figure is 1.44; as for GGAATTGGGA, 0.93; as for CAGATGTCAT, 1.02.
As for ACAGGAATCA, the figure is 1.03; as for GACGGACCAC, 1.36.
Take TAGGTTAGTA: the switch fluorescence ratio turned out to be 0.996.
With CGAGACGTTT, the switch fluorescence ratio came to 0.991.
As for AGCTTCTAGA, the figure is 0.994.
As for ACTCAGTTGG, the figure is 1.01.
In the case of TGCTTCGTTT it was 0.958.
AAATCGAATA: the switch fluorescence ratio amounted to 1.04.
With GCGGACCGAA, the switch fluorescence ratio is 1.06.
In the case of AGCCAGGGAC it was 1.02.
In the case of TGTTCGTTAA it was 1.01; in that of CACGAGCATC, 1.43; in that of AACATTTACT, 1.02.
As for TATGAGGAAT, the figure is 0.974; as for TCCATCGAGT, 1.01.
Take TGTTAACTAC: the switch fluorescence ratio stood at 1.1.
Consider TAGGCTTGAT, for which the switch fluorescence ratio was 0.982.
In the case of GCATTACGTG it was 1.09; in that of TCTTGCAACT, 1.09.
In the case of TCGGAAGGCA it was 1.07; in that of ACCGGTAGCA, 1.07.
As for ATATTAGGCG, the figure is 1.04.
On to AATAAGTGCA, for which the switch fluorescence ratio was determined as 0.961.
In the case of TGGCAACGAT it was 0.976.
As for TATTTATCGC, the figure is 0.954.
For the sequence TTCCGCGGGC, the switch fluorescence ratio was found to be 1.12.
As for CTAGGGACAC, the figure is 1.07; as for ATTCACTTCC, 1.06.
As to AGGGGCAA, the switch fluorescence ratio is 1.45.
In the case of GTTTTCCACC it was 1.07.
In the case of CGAGCGTAGT it was 0.994; in that of TTTAAGCGT, 1.01.
In the case of CTGAGGTTTC, the switch fluorescence ratio amounted to 1.03.
In the case of AGCAGTCGCC it was 1.04; in that of AAACTTCAAC, 1.07; in that of GATCTTTCCA, 0.979.
As for TAGGTGCACT, the figure is 1.05.
In the case of AAGGATGACA it was 1.04; in that of CCTAGTCTTG, 1.01.
As for TTCATAACGT, the switch fluorescence ratio was determined as 1.01.
In the case of TTTTTCGCGA it was 1.01; in that of TTGTAGTATT, 0.975; in that of TAAAAAGTGA, 0.936.
As for TTTCCTAGTA, the figure is 1.01; as for TATAATGCTA, 1.02; as for GCTTATGCAT, 1.02.
With GGGAGGTGG, the switch fluorescence ratio was 1.1.
As for GCGCTGAGAT, the figure is 0.985; as for CGGTCGAGGC, 0.962.
Turning to CGGCCAGACA, the switch fluorescence ratio amounted to 1.01.
As for TCGTCTATGG, the figure is 1.05.
As to CGAACAAACT, the switch fluorescence ratio was 1.02.
As for TTGGCTGAGA, the figure is 1.02.
As for AAGTTAGAGG, the figure is 0.981.
In the case of AGGATCGTGG it was 1.
As for CTGTCGCACT, the switch fluorescence ratio worked out at 1.36.
As for GATGGGGACG, the figure is 0.907; as for AGTTGAGCGG, 0.927.
Turning to TGAAGTTACA, the switch fluorescence ratio stood at 1.06.
As for ACCATCTTGG, the figure is 0.98; as for GGAGGGATGC, 1.25; as for CAATTAAG, 0.953.
In the case of AGCCTCCTTT it was 1.04; in that of TAAATACGAA, 1.03.
In the case of TGCATGGATA it was 1.01; in that of TGCGTTTAA, 1.02; in that of CCGTGCAGCA, 1.46.
Regarding CCACAAGCAG, the switch fluorescence ratio was found to be 2.46.
In the case of GTTCGCCCGA it was 1.
As for TCCCCATGAG, the figure is 1.19.
Consider CCAAGGTCCC, for which the switch fluorescence ratio worked out at 1.01.
Turning to ACTACGCCTT, the switch fluorescence ratio turned out to be 2.11.
In the case of TCTTCTGCCG it was 0.972; in that of GGCAGGTGAG, 1.21; in that of AAAGAGACAA, 1.
As for CAGAGCTAGA, the figure is 0.992; as for ATGTGGAGCT, 1.04; as for CTACTGTGCG, 1.07.
On to ATGCGACGAA, for which the switch fluorescence ratio is 1.02.
As for AAACAAATC, the figure is 0.988; as for TTTGCACGAT, 1.07; as for GGGCCCGTCA, 1.
As for GACTCGGGTA, the figure is 1.02; as for ATTACGTTGC, 1.05.
In the case of CGTTTCGACA it was 1.01; in that of CCTAACCTAG, 1.08; in that of ATGTCCGTCA, 0.917.

The values are drawn from the supplement of paper PMC10126150.
